The list shows a part of the results.
How the values were obtained:
[1] = test system: HSkMC (human skeletal muscle cells); experiment: cytotoxicity call (relative viability < 0.9); details: 10 µM
[2] = test system: HepG2; experiment: cytotoxicity call (relative viability < 0.9); details: 10 µM
[3] = test system: S. aureus RN4220; experiment: growth inhibition call (relative growth <= 0.2); details: 50 µM

Compound | cytotoxicity call [1] | cytotoxicity call [2] | growth inhibition call [3]
O=C(OC[C@H]1O[C@@H](OC(=O)c2cc(O)c(O)c(O)c2)[C@H](OC(=O)c2cc(O)c(O)c(O)c2)[C@@H](OC(=O)c2cc(O)c(O)c(O)c2)[C@@H]1OC(=O)c1cc(O)c(O)c(O)c1)c1cc(O)c(O)c(O)c1 | active | active | inactive
C[C@H](CO)N1C[C@H](C)[C@H](CN(C)Cc2ccncc2)Oc2c(NC(=O)c3ccncc3)cccc2C1=O | inactive | inactive | inactive
NCc1ccccc1CC(=O)NC1C(=O)N2C(C(=O)O)=C(CSc3nnnn3CC(=O)O)CSC12 (centres undefined) | inactive | inactive | active
C[C@@H]1CN([C@H](C)CO)C(=O)c2cc(NC(=O)CCC(F)(F)F)ccc2O[C@@H]1CN(C)C(=O)Nc1ccc(C(F)(F)F)cc1 | inactive | inactive | inactive
COc1cccc(NC(=O)N(C)C[C@@H]2Oc3ncc(C#Cc4ccncc4)cc3C(=O)N([C@H](C)CO)C[C@H]2C)c1 | inactive | active | inactive
CN[C@@H]1[C@H](O)[C@H](NC)[C@H]2O[C@@]3(O)C(=O)C[C@@H](C)O[C@H]3O[C@@H]2[C@H]1O | inactive | inactive | inactive
C[C@@H]1CCCCO[C@H](CN(C)C(=O)Nc2ccc(C(F)(F)F)cc2)[C@@H](C)CN([C@H](C)CO)C(=O)c2cc(NC(=O)Cc3ccccc3)ccc2O1 | inactive | inactive | inactive
O=C1C(=O)C(O)C(=O)C(=O)C1O (centres undefined) | inactive | inactive | inactive
CCCN(C)C[C@@H]1OCCCC[C@H](C)Oc2ccc(NC(=O)Nc3cccc4ccccc34)cc2C(=O)N([C@H](C)CO)C[C@@H]1C | inactive | inactive | inactive
COc1ccccc1NC(=O)N(C)C[C@@H]1Oc2ncc(C#CC(C)C)cc2C(=O)N([C@@H](C)CO)C[C@@H]1C | inactive | inactive | inactive
C[C@@H]1CCCCO[C@@H](CN(C)S(=O)(=O)c2ccc(Cl)cc2)[C@H](C)CN([C@@H](C)CO)C(=O)c2cc(NC(=O)Nc3cccc4ccccc34)ccc2O1 | inactive | inactive | inactive
O=C(C[C@@H]1CC[C@H]2[C@@H](COC[C@H](O)CN2C(=O)Nc2ccc(Cl)c(Cl)c2)O1)NCc1ccc(Cl)c(Cl)c1 | inactive | inactive | active
COc1ccc(NC(=O)N(C)C[C@@H]2Oc3ccc(NC(=O)Nc4cccc5ccccc45)cc3C(=O)N([C@H](C)CO)C[C@H]2C)cc1 | inactive | inactive | inactive
